The text below walks through data of article PMC4336329 (PLoS ONE, 2015).

The structures appear in SMILES notation. The campaign covered roughly 310,000 compounds. About 14,000 (4.5%) showed an effect of 50% or more. The effect is printed as a negative number. The list shows a part of the results.
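Also: peak tail current of the secondary pulse compared with the same well before compound.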

The target of this test is human ether-à-go-go-related gene (hERG) potassium channel (human, UniProt Q12809). As to the kind of experiment: primary screen, population patch clamp on CHO cells stably expressing hERG. Here is the method: Briefly, Chinese hamster ovary (CHO) cells stably expressing the hERG channel were dislodged from tissue culture flasks and dispensed into PPC plates. […] During the recording, background leak currents were estimated by a 100 ms step to -80 mV from an initial holding potential of -70 mV and subtracted from the subsequent current measurement. The campaign was conducted in two phases using slight differences in recording protocol. In the first phase, the initial voltage pulse used a 100 ms step to -30 mV from a holding potential of -70 mV, a 2 s conditioning step to +25 mV, and a 2 s test step to -30 mV. During the second phase of the screen, the potential during the conditioning step was raised to +45 mV. In both phases of the campaign, a secondary voltage pulse was applied using the same parameters as the second phase initial pulse. The initial and secondary pulses were applied in the absence of compound, and upon application of 1 μM and 10 μM test concentrations. […]
human ether-à-go-go-related gene (hERG) potassium channel, sequence (Q12809 whole entry, looked up): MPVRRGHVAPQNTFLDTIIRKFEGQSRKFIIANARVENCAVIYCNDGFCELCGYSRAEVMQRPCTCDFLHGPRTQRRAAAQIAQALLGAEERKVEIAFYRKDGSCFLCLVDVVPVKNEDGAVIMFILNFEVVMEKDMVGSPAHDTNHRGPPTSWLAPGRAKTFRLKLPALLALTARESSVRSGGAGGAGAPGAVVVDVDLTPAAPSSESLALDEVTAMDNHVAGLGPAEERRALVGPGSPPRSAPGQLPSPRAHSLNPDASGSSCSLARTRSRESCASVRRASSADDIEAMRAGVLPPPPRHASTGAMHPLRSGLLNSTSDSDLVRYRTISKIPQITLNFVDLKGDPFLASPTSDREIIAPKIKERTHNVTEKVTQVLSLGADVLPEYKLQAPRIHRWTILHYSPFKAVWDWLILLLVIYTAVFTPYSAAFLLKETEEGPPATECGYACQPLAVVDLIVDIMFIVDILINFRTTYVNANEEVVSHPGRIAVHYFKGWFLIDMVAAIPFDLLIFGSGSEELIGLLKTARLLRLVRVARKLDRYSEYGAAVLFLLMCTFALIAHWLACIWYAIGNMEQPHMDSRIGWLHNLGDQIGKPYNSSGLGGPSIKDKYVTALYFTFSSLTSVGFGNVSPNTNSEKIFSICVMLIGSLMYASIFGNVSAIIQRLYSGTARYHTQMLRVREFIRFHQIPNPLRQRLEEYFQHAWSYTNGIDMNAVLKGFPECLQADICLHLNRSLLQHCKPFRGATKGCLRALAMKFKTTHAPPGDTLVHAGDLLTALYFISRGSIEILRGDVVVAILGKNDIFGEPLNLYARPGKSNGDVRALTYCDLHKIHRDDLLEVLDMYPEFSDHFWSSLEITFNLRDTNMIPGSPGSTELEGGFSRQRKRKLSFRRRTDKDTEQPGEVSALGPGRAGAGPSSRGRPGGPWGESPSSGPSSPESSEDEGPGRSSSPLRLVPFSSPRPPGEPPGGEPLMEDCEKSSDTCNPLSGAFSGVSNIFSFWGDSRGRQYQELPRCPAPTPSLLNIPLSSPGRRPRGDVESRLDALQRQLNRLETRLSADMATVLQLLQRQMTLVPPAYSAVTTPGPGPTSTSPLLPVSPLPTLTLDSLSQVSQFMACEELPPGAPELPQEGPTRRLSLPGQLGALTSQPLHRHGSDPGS
Regarding `c1ccc(NCCCNc2ccccc2)cc1`, the “hERG current change (%, negative = inhibition) at 10uM” value worked out at 0.426%.

As for `CCCn1c2ccccc2c2nnc(SCC(=O)Nc3ncccn3)nc21`, the “hERG current change (%, negative = inhibition) at 10uM” value was -17.4%.

With `O=C(NC1CCCCC1)C1CC(=O)N(CCc2ccc(F)cc2)C1` (centres unmarked), the “hERG current change (%, negative = inhibition) at 10uM” value is -11.3%.

Consider `C=CCn1c(=S)[nH]c2ccc(Br)cc2c1=O`, for which the “hERG current change (%, negative = inhibition) at 10uM” value stood at 8.98%.

For `COC(=O)c1ccc(N2C(=O)CC(Sc3n[nH]c(C)n3)C2=O)cc1` (centres unmarked), the “hERG current change (%, negative = inhibition) at 10uM” value is -2.31%.

With `CCC/C=N/O`, the “hERG current change (%, negative = inhibition) at 10uM” value is 13.1%.

In the case of `CC/C(=N\NC(=O)c1cc(C)nc2ccccc12)c1ccc(C)s1`, the “hERG current change (%, negative = inhibition) at 10uM” value was -9.3%.

`NS(=O)(=O)c1ccc(CCNC(=O)C2CC(=O)N(Cc3ccccc3Cl)C2)cc1` (centres unmarked): the “hERG current change (%, negative = inhibition) at 10uM” value turned out to be 4.97%.

Take `CCn1c(CC(=O)Nc2ccccc2F)nnc1SCC(=O)N1CCN(c2ccccc2)CC1`: the “hERG current change (%, negative = inhibition) at 10uM” value was 1.15%.

In the case of `Fc1cccc(Cn2ccc(-c3ccc4c(c3)OCO4)n2)c1`, the “hERG current change (%, negative = inhibition) at 10uM” value is -5.65%.

In the case of `O=C(NCCCc1ccccc1)Nc1ccccc1`, the “hERG current change (%, negative = inhibition) at 10uM” value is on record as -4.32%.

Turning to `[S-]C(=Nc1ccc(Cl)cc1)N[n+]1ccccc1`, the “hERG current change (%, negative = inhibition) at 10uM” value is recorded as 1.12%.

Turning to `CC(C)CN(c1ccccc1)S(=O)(=O)c1nnc(NC(=O)c2ccco2)s1`, the “hERG current change (%, negative = inhibition) at 10uM” value turned out to be 7.79%.

Regarding `O=C(Nc1sc2c(c1C(=O)O)CCCC2)c1ccc(Cl)cc1`, the “hERG current change (%, negative = inhibition) at 10uM” value was 41.9%.

As for `COc1ccc(/C(C)=N/NC(=O)CNC(=O)/C=C\c2ccccc2OC)c(OC)c1`, the “hERG current change (%, negative = inhibition) at 10uM” value is listed as -25.2%.

Take `N#CCCN(Cc1cccnc1)C(=S)NC(=O)c1ccc(S(=O)(=O)N2CCCC2)cc1`: the “hERG current change (%, negative = inhibition) at 10uM” value turned out to be 13.8%.

Take `Cc1cc(C)c2nc(NC(=O)[C@@H](NC(=O)c3cccc(S(=O)(=O)N4CCOCC4)c3)C(C)C)sc2c1`: the “hERG current change (%, negative = inhibition) at 10uM” value is 10.3%.

Take `O=C(c1cc(O)c(O)c([N+](=O)[O-])c1)c1ccccc1F`: the “hERG current change (%, negative = inhibition) at 10uM” value stood at 2.56%.

For `CC1CCCC(NC(=O)C2N(CCCN3CCCC3)C(=O)C3C(C(=O)Nc4cccc(Cl)c4)C4C=CC32O4)C1C` (centres unmarked), the “hERG current change (%, negative = inhibition) at 10uM” value is 7.3%.

On to `CSCCC(NS(=O)(=O)c1ccc(Cl)cc1)C(=O)OCc1c(Cl)cccc1Cl` (centres unmarked), for which the “hERG current change (%, negative = inhibition) at 10uM” value stood at 6.45%.

For the compound `CCC(C)Nc1nc(-c2ccc3c(c2)NC(=O)CO3)cs1` (centres unmarked), the “hERG current change (%, negative = inhibition) at 10uM” value turned out to be 4.35%.

For `COc1cc2ccccc2cc1C(=O)Nc1ccc(NC(=O)c2cccs2)cc1`, the “hERG current change (%, negative = inhibition) at 10uM” value is 22.9%.

For the compound `Nc1c(C(=O)Nc2ccc(S(=O)(=O)N3CCCC3)cc2)sc2nc3cc4c(cc3cc12)CCC4`, the “hERG current change (%, negative = inhibition) at 10uM” value came out at 1.65%.

`C/C(=N\NC(=S)Nc1ccc(F)cc1)C1CC1`: the “hERG current change (%, negative = inhibition) at 10uM” value is on record as -26.7%.

Turning to `Cc1ccc(C(=O)N2CC(=O)Nc3ccc(F)cc3C2c2ccccc2)cc1[N+](=O)[O-]` (centres unmarked), the “hERG current change (%, negative = inhibition) at 10uM” value turned out to be 13.9%.

Turning to `COc1cccc(C(=O)Nc2cc3c(cc2Cl)OCCCO3)c1`, the “hERG current change (%, negative = inhibition) at 10uM” value was -2.72%.

With `COCc1c(C(=O)OCC(=O)N(C)C2CCS(=O)(=O)C2)oc2ccccc12` (centres unmarked), the “hERG current change (%, negative = inhibition) at 10uM” value is reported as -1.23%.

On to `CN(C)c1ccc(NC(=S)c2ccc3ccccc3n2)cc1`, for which the “hERG current change (%, negative = inhibition) at 10uM” value is recorded as 12.2%.

With `Cc1ccc(S(=O)(=O)N(C)C)cc1NC(=O)C(C)NC(C)c1cccs1` (centres unmarked), the “hERG current change (%, negative = inhibition) at 10uM” value is given as -1.77%.

`O=C(COc1ccc(Cl)cc1Cl)NNC(=S)Nc1ccc(F)cc1`: the “hERG current change (%, negative = inhibition) at 10uM” value came out at 10.2%.

Take `CN(Cc1ccccc1)C(=S)Nc1ccc(OC(F)F)cc1`: the “hERG current change (%, negative = inhibition) at 10uM” value is on record as -21.2%.

As to `CC(=O)c1cnn(-c2cc(Oc3ccccc3C)ncn2)c1C`, the “hERG current change (%, negative = inhibition) at 10uM” value was 13.2%.

Consider `O=C(CN1CCN(CC(=O)Nc2ccc(OCc3ccccc3)cc2)CC1)Nc1ccc(F)cc1`, for which the “hERG current change (%, negative = inhibition) at 10uM” value was -72.5%.

In the case of `COC(=O)COc1ccc(S(=O)(=O)Nc2ccc(C(N)=O)cc2)cc1`, the “hERG current change (%, negative = inhibition) at 10uM” value is 17.5%.

`COc1ccc(C(=O)NCC(C)(C)SCc2c(C)cc(C)cc2C)cc1`: the “hERG current change (%, negative = inhibition) at 10uM” value was 15.4%.

On to `Nc1cc(S(=O)(=O)Nc2cc(Cl)ccc2Cl)ccc1N1CCOCC1`, for which the “hERG current change (%, negative = inhibition) at 10uM” value came out at 17.2%.

Consider `Cc1c(N(C(=O)c2cc(=O)[nH]c3ccccc23)C(C)C)c(=O)n(-c2ccccc2)n1C`, for which the “hERG current change (%, negative = inhibition) at 10uM” value is listed as -5.09%.

For `O=C(CN1CCN(S(=O)(=O)c2ccc(F)cc2)CC1)Nc1ccc(Cl)cn1`, the “hERG current change (%, negative = inhibition) at 10uM” value is -62.7%.

Consider `COc1ccc2ccccc2c1/C=N/Nc1cccc(C(=O)O)c1`, for which the “hERG current change (%, negative = inhibition) at 10uM” value was 28.9%.

Regarding `CCOc1ccc(-c2cccc(NC(=O)c3ccc(Br)o3)c2)nn1`, the “hERG current change (%, negative = inhibition) at 10uM” value is -47.8%.

As for `O=S(=O)(NCc1ccccc1)c1ccc(Br)s1`, the “hERG current change (%, negative = inhibition) at 10uM” value is on record as -11.3%.

Take `COC1=CC(=O)OC12CCCCC2`: the “hERG current change (%, negative = inhibition) at 10uM” value stood at 8.91%.

`COc1cc(C(=O)OC2CCOC2=O)cc(Cl)c1OC` (centres unmarked): the “hERG current change (%, negative = inhibition) at 10uM” value came out at 14.7%.

As to `COc1ccc(/C(=N\O)c2ncc(C(F)(F)F)cc2Cl)cc1`, the “hERG current change (%, negative = inhibition) at 10uM” value was -3.33%.
